Patent US9777034B2, “Modular synthesis of amphiphilic Janus glycodendrimers and their self-assembly into glycodendrimersomes” (The Trustees of The University of Pennsylvania, priority 2013, dated 2017)

Assay: Micropipette aspiration of giant glycodendrimersomes
Conditions: giant vesicles prepared by hydration

Substance: (3,4)12G1-PE-spacer-TRZ-(galactose)2 [Compound 50aa]
- behaviour in micropipette aspiration: buckles in response to the applied suction pressure
